This is one part of the list.
B1: chr4:95690885:95690886:+_ENSMUSG00000028572_ENSMUST00000156910|mus_mus|mus_mus_mus_hu_False|38_38 (ssRNA)
RNA: GGGAGUUCUACAGUCCGACGAUCUUUAGAAAAUGUUAAAUACCAUGCUAAAAUAUUUUCAAAGGCUUAUUUUAUUUUACCAGAAGUCACAGGCAAGCAGACACCAUAAGAAUAUAUGAAAAUGAAACUCAACAAUAUAACUGUCAACAGAGGAUUGAGCAUCA
B2: chr15:98516890:98516891:+_ENSG00000140450_ENST00000268042|hu_hu|motif|central (ssRNA)
RNA: GGGAGUUCUACAGUCCGACGAUCAAUAAUAAAAAUAAGAAAGCUUUCAUAGUUAACUUACCAAAAACAUAACGCUUGCCGGUUGUUUCUUACUGUGCAAAACAAAAACAAAGUUUUGCCCACAGAAGGAUUUUGUGCACCAAACAACAGAGGAUUGAGCAUCA
B3: chr10:5944071:5944072:+_ENSMUSG00000019763_ENSMUST00000042251|mus_mus|FALSE|FALSE (ssRNA)
RNA: GGGAGUUCUACAGUCCGACGAUCUCCCCAGCAUCUCUGCAGAGAGCUGGAAAGAAAGGCCACACACUCGCCUUGGCAGUACUAGCAAGCACAGCAUCAGCAAGAUGUCACUGAAUGUGUAUUCUCUGGUGUAGUCGGCCAAGGCAACAGAGGAUUGAGCAUCA
B4: 123525202_123525322_3127_3pUTR_ENSG00000119402_ENST00000608872|human|control|control (ssRNA)
RNA: GGGAGUUCUACAGUCCGACGAUCCUACUGCUUGCUCCCUCUACUCUCUCCCUGAUUGUGACCACUAACAUUUCCACUGCUGAAUCACAAAAUUACCUAACUUUAGAGAGGGAGGAGGACACAAUCUGGCAACCCAGGGACAUGCAACAGAGGAUUGAGCAUCA
B5: chr19:16212804:16212805:+_ENSG00000167460_ENST00000300933|hu_mus|hu_hu_hu_mus_False|1_88 (ssRNA)
RNA: GGGAGUUCUACAGUCCGACGAUCAACAAUUCUGGAGUGAAGGAAAGCAUCAAGGAUGAACAGCAUUAAAGCUCAGUCAGAAGGCACAUGGGCAACAAUGAUCACCCCAGCAUUCUCGCUUGGAAUGCUUAAAGACAGAUGUUUCAACAGAGGAUUGAGCAUCA
B6: 6597745_6597865_437_ncRNA_ENSMUSG00000021196_ENSMUST00000144053|mouse|control|control (ssRNA)
RNA: GGGAGUUCUACAGUCCGACGAUCACAUCAAAAGGAGUUUCAGCAGAAUAGACAAUUUACUGGUUUAAUUUAUCAGAAUUGAGCUAGUCUUGUGCUACAUCUUGCUACCCUGCUAUUCUGUGUUUCAGGACAAUGGGUUUGUGUCAACAGAGGAUUGAGCAUCA
B7: 17162015_17163372_1340_CDS_ENSG00000003987_ENST00000180173|human|control|control (ssRNA)
RNA: GGGAGUUCUACAGUCCGACGAUCUCUUUCUUGAAUCUUGAGUUCUCGUCUCUCCUUUUGGCUGUUACAUAGGAAGUUUCCAAACUGGCAGGAAUAAAUGUGAUGUUGAAUGUGAAUCAAAAACCUCUCAUUGAACUCAAAGGCCAACAGAGGAUUGAGCAUCA
B8: 89368891_89370784_2555_CDS_ENSMUSG00000031652_ENSMUST00000034074|mouse|control|control (ssRNA)
RNA: GGGAGUUCUACAGUCCGACGAUCGUCAAAUGUGCCCACACUUGGCAGGGCAUUGAGUAGCGGCUGCAUGUGUCUAAGAAAGGCCUCCUUUCGAAGAAAUUCUUCUAGCCGAGGUCCGUUUCUUCCCAGAGGGUCAUCAGGAACCAACAGAGGAUUGAGCAUCA
B9: chr9:14812383:14812384:-_ENSMUSG00000031934_ENSMUST00000164273|mus_mus|mus_mus_mus_hu_True|1_48 (ssRNA)
RNA: GGGAGUUCUACAGUCCGACGAUCAUAGCCCAGGUAGAUACACGCUAACAGUAUAAUGAUGAGUGUCAGCAGGCGGCAGCUAAUGUAUUUCAUGAUUAAAUUAUUAGAAUUUUUCUUUGUCUUCAAGUACUGCUCCACGAUUGGCAACAGAGGAUUGAGCAUCA
B10: chr2:198351390:198351391:-_ENSG00000144381_ENST00000345042|hu_hu|hu_hu_hu_mus_False|58_58 (ssRNA)
RNA: GGGAGUUCUACAGUCCGACGAUCUCAUUCCCACCCUCCACAGAAAGGCUGCUUCUGAACUCUCAUGUGGUGACACAGCACUAAAAUCCUGAUGCUCACAGAACAGUAGAGAUGCCUCAGUGAUUUAAGUUGAAAGCAGGACACCAACAGAGGAUUGAGCAUCA
B11: chr12:39763582:39763583:-_ENSG00000139116_ENST00000544797|hu_mus|hu_hu_hu_mus_False|8_58 (ssRNA)
RNA: GGGAGUUCUACAGUCCGACGAUCCUCUAGGAACUGGGCAUUCACUUUGAAUUCAGGAGGGGGCAGCCCGUUUUUAAUUGCUAUGUGCUUUUUCUCAUCAAUACUCUUGAACAGGUGUCUAACAGCACGAGAAAUAAUGCCCUGCAACAGAGGAUUGAGCAUCA
B12: chr17:30526466:30526467:+_ENSG00000126858_ENST00000394692|hu_mus|FALSE|FALSE (ssRNA)
RNA: GGGAGUUCUACAGUCCGACGAUCGUAAGGAAAAACUUGAAAUAAAUCUUUAAGUUCAUCAGGCGACAAAGCACAGUCUCUGUCCAAAUCAUGUUUGUCAAAGGUGCUCUGGAGAAACAAAUAUGCAUGAUGAUUUAAUUCAGUCAACAGAGGAUUGAGCAUCA
B13: chr2:232320318:232320319:-_ENSG00000115053_ENST00000322723|hu_hu|hu_hu_hu_mus_True|18_68 (ssRNA)
RNA: GGGAGUUCUACAGUCCGACGAUCACUAUUAAAGUCUACAAAACCAAACCCUUUGGAAGAACCAGUUUCCCGGUCAGUGACUAUUCUUGCACGAACAGAGCCCUCAAAUGAUUCUUUUAAUGUCUCUUCAGUGGUAUCCUCAGACAACAGAGGAUUGAGCAUCA
B14: 7343312_7343432_582_5pUTR_ENSMUSG00000024968_ENSMUST00000066646|mouse|control|control (ssRNA)
RNA: GGGAGUUCUACAGUCCGACGAUCGAGGGGCACGGGAUCCUUUGGAGAGCGCAGGAGCUUGCCGCGCUUGCCUCGAGUGCUGCGCCUGGCCCGGCCUGGAGGGGUCGCCACUGAGGCUACGAGAGGCAGGAGGUCAGCGUGGCUCAACAGAGGAUUGAGCAUCA
B15: chr7:54825262:54825263:-_ENSG00000132432_ENST00000352861|hu_hu|hu_hu_hu_mus_False|38_108 (ssRNA)
RNA: GGGAGUUCUACAGUCCGACGAUCCUGACUUGGCUCAUCCACAAACUGCAUUACCUGAUCCAUGUUUGUUGGAUGGCGGAUUGAGAGCGUAGAGACAACGUAGCACUGAGAGAACCGAGCCCAACGGAACCGGAAGCUGGCAACCAACAGAGGAUUGAGCAUCA
B16: chr8:104075188:104075189:+_ENSG00000155097_ENST00000518738|hu_hu|FALSE|FALSE (ssRNA)
RNA: GGGAGUUCUACAGUCCGACGAUCCUUCCUAAACAAGGUGACAUUACACAGGUAACUGUCUUGGUCCUCUGAAAGAACAUUGCUAGACCUUGGAACUACCAUUUCGGCUAGUGUUUCAUACUGCUUAAUCCAGUCGUUGUGGUUCAACAGAGGAUUGAGCAUCA
B17: chr3:10015032:10015033:+_ENSMUSG00000027533_ENSMUST00000029046|mus_mus|mus_mus_mus_hu_True|48_78 (ssRNA)
RNA: GGGAGUUCUACAGUCCGACGAUCGUUUUUACCAUCACAAGUGAUGAUACAAUCUGGCUUGGCCAUGGCGCCCAUUUUUCGCAAAGCCAGUCCUACUCCUAGCUCCUUCAUGUAUUCAUCAAAGCCUUUGCUGUCCACCAGGCGCAACAGAGGAUUGAGCAUCA
B18: 122070067_122071345_590_CDS_ENSMUSG00000031835_ENSMUST00000081381|mouse|control|control (ssRNA)
RNA: GGGAGUUCUACAGUCCGACGAUCGCUUUUCAGAGCACUUGAAAUAAAUGAGUUUCUAGCUUUGGCUGUGAAGUAUCCGUUGAAAGCCACAAUAUAUUCGUACUCCACCACAGUUGAAGAGAAUUCCACCUUCAAAGUCAGGUGCAACAGAGGAUUGAGCAUCA
B19: 136544985_136548241_3180_CDS_ENSMUSG00000030213_ENSMUST00000032335|mouse|control|control (ssRNA)
RNA: GGGAGUUCUACAGUCCGACGAUCCUGCAACGGUCGAGACAUGGGCUGAGAAGUGCUCACAGUUGAUGAAGAAGGAGGACUUAUCUUCUUGGGGUCUUGUGUAGUUCCGCUCUCUUCAUCGUCCAUCGUGAGAUCAAUGACACCCAACAGAGGAUUGAGCAUCA
B20: chr4:169848332:169848333:+_ENSG00000129116_ENST00000507735|hu_hu|FALSE|FALSE (ssRNA)
RNA: GGGAGUUCUACAGUCCGACGAUCUUGCAUUUUCCUUCAUUCUCCUCCCUACUCCUUCCAAACCCCUGAUUCCUCCAAAUACUAUAUAUGCCUUGGUCAUUUGGGUGGUUUGGAUGCUUUCUGUGGAAUGAACUGUAAUAUAUUCAACAGAGGAUUGAGCAUCA
B21: chr7:7679991:7679992:-_ENSG00000106399_ENST00000396682|hu_hu|hu_hu_hu_mus_False|1_18 (ssRNA)
RNA: GGGAGUUCUACAGUCCGACGAUCUGGGAUGAAUCUUUUCCAGCUUCCCCACGAAGCACACGGGCCGGUCGAUAUACUGUGGUAACAUGCUGGCGUUGACGCGCGCUUUGGGGAGCUCCAUCAUGUCCUCCAUGAUUAUGGUCCCAACAGAGGAUUGAGCAUCA
B22: chr5:37680062:37680063:+_ENSMUSG00000029121_ENSMUST00000031004|mus_hu|mus_mus_mus_hu_False|48_78 (ssRNA)
RNA: GGGAGUUCUACAGUCCGACGAUCUUUGGGUGUAGCUGGUACCUCGUACACAGGACCAUCGUACAUGCCCCUGGAAACCCCUUGCAACCCGAAAACCUUAUUCCUGAUUUUGACGCGCUGGUACAGGUGCUCCGGGAACGCCUUCAACAGAGGAUUGAGCAUCA

biological target: T1, UNK ZnF1-3 (human, UniProt Q9C0B0 31-174); assay: nsRBNS (natural sequence RNA bind-n-seq); RBNS binding buffer (assumed for nsRBNS): 25 mM Tris pH 7.5, 150 mM KCl, 3 mM MgCl2, 0.01% Triton X-100, 500 ug/ml BSA, 20 U/ml SUPERase-In, 4 C; UNK is unkempt and MSI1 is Musashi-1; names of the RNAs are library labels; protein concentration not given here; high values mean tight binding
T1 sequence: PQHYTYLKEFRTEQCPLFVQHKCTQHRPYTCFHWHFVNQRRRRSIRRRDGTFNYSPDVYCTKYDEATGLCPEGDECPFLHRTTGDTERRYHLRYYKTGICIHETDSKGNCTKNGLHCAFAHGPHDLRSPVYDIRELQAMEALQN

Row | Binder | binding signal [enrichment R]
1 | B1 | 1.69
2 | B2 | 2.25
3 | B3 | 0.888
4 | B4 | 0.98
5 | B5 | 1.63
6 | B6 | 1.03
7 | B7 | 1.52
8 | B8 | 1.09
9 | B9 | 2.38
10 | B10 | 1.26
11 | B11 | 1.73
12 | B12 | 1.04
13 | B13 | 1
14 | B14 | 0.766
15 | B15 | 1.13
16 | B16 | 0.518
17 | B17 | 0.731
18 | B18 | 0.973
19 | B19 | 0.808
20 | B20 | 0.558
21 | B21 | 0.802
22 | B22 | 0.62

Reference: publication PMC12136788
